Source: patent publication US11130803B2, “Isoform-selective TGFβ1 inhibitors and use thereof” (Scholar Rock, Inc., priority 2018, dated 2021)

How the values were obtained:
[1] = tested on: matrix-associated (LTBP1/LTBP3) and cell-associated (GARP/LRRC33) proTGFβ1 complexes; assay: Octet: average KD and fold bias, matrix- vs cell-associated complexes; type: binding, human
Excerpt: Column (A) of the table lists monoclonal antibodies with discrete amino acid sequences. […] Columns (B), (D), (E) and (F) provide affinities of each of the listed antibodies, measured in KD. […] Average KD values of (B) and (C) are shown in the corresponding column (D), which collectively represents affinities of the antibodies to ECM- or matrix-associated proTGFβ1 complexes. Similarly, Average KD values of (E) and (F) are shown in the corresponding column (G), which collectively represents affinities of the antibodies to cell-surface or cell-associated proTGFβ1 complexes. Finally, relative ratios between the average KD values from columns (D) and (G) are expressed as “fold bias” in column (H). […] This is one way of quantitatively representing and comparing inherent bias of antibodies to their target complexes.
Average KD values between the two matrix-associated and cell-associated complexes are calculated, respectively (see columns (D) and (G)). These average KD values can then be used to ask whether bias in binding activities exists between complexes associated with matrix vs. complexes associated with cell surface (e.g., immune cells). Bias may be expressed as “fold-difference” in the average KD values, as illustrated in Table 8.

[2] = biological target: T1, recombinant human LTBP1-proTGFβ1 complex (Homo sapiens, UniProt P01137); assay: Octet (Biolayer Interferometry) in vitro kinetic binding; conditions: in M
T1 construct: made in house; host or cells: Expi293F cells, transient co-transfection
Excerpt: (§1) Biolayer Interferometry (BLI):BLI is a label-free technology for optically measuring biomolecular interactions, e.g., between a ligand immobilized on the biosensor tip surface and an analyte in solution. BLI provides the ability to monitor binding specificity, rates of association and dissociation, or concentration, with precision and accuracy. BLI platform instruments are commercially available, for example, from ForteBio and are commonly referred to as the Octet® System.
(§2) BLI-based binding assays are widely used in the art for measuring affinities and kinetics of antibodies to antigens. It is a label-free technology in which biomolecular interactions are analyzed on the basis of optical interference. One of the proteins, for example, an antibody being tested, can be immobilized on the biosensor tip. When the other protein in solution, for example, an antigen, becomes bound to the immobilized antibody, it causes a shift in the interference pattern, which can be measured in real-time. This allows the monitoring of binding specificity, rates of association and dissociation, as well as concentration dependency. […] Due to its ease of use and fast results, BLI-based assays such as the Octet® system (available from ForteBio/Molecular Devices, Fremont Calif.), are particularly convenient when used as an initial screening method to identify and separate a pool of “binders” from a pool of “non-binders” or “weak binders” in the screening process.
(§3) Table 8 below provides non-limiting examples of high-affinity, context-independent proTGFβ1 antibodies encompassed by the present invention. The table provides representative results from in vitro binding assays, as measured by Octet®.
(§4) Column (A) of the table lists monoclonal antibodies with discrete amino acid sequences. […] Columns (B), (D), (E) and (F) provide affinities of each of the listed antibodies, measured in KD. […] Average KD values of (B) and (C) are shown in the corresponding column (D), which collectively represents affinities of the antibodies to ECM- or matrix-associated proTGFβ1 complexes. […] Finally, relative ratios between the average KD values from columns (D) and (G) are expressed as “fold bias” in column (H). […] This is one way of quantitatively representing and comparing inherent bias of antibodies to their target complexes. […]
(§5) In some embodiments, the binding affinity of an antibody, or antigen binding portion thereof, to an antigen (e.g., protein complex), such as presenting molecule-proTGFβ1 complexes, is determined using an Octet assay. […] For example, binding affinities of antibodies may be determined using the fortéBio Octet QKe dip and read label free assay system utilizing bio-layer interferometry. […]

[3] = biological target: T2, recombinant human GARP-proTGFβ1 complex (Homo sapiens, UniProt P01137); assay: as above; conditions: in M
T2 construct: made in house
Excerpt: as §1, §2, §3, §4, §5

[4] = biological target: T3, recombinant human LTBP3-proTGFβ1 complex (Homo sapiens, UniProt P01137); assay: as above; conditions: in M
T3 construct: made in house; host or cells: Expi293F cells, transient co-transfection
Excerpt: as §1, §2, §3, §4, §5

[5] = biological target: T4, recombinant human LRRC33-proTGFβ1 complex (Homo sapiens, UniProt P01137); assay: as above; conditions: in M
T4 construct: made in house
Excerpt: as §1, §2, §3, §4, §5

[6] = tested on: matrix-associated (LTBP1/LTBP3) and cell-associated (GARP/LRRC33) proTGFβ1 complexes; assay: Octet: average KD and fold bias, matrix- vs cell-associated complexes; type: binding, human; conditions: average KD of (B) and (C), read-out: (D) ECM AVRG

T3 sequence (P01137 30-390): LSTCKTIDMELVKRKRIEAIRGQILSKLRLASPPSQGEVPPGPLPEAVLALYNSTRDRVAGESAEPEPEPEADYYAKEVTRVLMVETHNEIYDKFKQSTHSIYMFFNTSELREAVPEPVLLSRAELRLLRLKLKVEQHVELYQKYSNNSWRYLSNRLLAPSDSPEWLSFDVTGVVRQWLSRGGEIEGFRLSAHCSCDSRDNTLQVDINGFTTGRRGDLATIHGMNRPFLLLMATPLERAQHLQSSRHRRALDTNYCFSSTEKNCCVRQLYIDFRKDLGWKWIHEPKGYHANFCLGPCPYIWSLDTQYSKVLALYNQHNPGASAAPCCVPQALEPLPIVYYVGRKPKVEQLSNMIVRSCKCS
T3 sequence (Q9NS15 866-1039 partner limits assumed): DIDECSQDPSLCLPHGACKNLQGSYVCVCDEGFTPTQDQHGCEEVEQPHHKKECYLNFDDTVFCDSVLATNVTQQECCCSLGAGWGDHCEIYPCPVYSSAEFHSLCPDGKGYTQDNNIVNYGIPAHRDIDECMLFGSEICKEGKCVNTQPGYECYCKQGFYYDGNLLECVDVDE
T1 sequence (P01137 30-390): as the sequence (P01137 30-390) above
T1 sequence (Q14766 873-1507 partner): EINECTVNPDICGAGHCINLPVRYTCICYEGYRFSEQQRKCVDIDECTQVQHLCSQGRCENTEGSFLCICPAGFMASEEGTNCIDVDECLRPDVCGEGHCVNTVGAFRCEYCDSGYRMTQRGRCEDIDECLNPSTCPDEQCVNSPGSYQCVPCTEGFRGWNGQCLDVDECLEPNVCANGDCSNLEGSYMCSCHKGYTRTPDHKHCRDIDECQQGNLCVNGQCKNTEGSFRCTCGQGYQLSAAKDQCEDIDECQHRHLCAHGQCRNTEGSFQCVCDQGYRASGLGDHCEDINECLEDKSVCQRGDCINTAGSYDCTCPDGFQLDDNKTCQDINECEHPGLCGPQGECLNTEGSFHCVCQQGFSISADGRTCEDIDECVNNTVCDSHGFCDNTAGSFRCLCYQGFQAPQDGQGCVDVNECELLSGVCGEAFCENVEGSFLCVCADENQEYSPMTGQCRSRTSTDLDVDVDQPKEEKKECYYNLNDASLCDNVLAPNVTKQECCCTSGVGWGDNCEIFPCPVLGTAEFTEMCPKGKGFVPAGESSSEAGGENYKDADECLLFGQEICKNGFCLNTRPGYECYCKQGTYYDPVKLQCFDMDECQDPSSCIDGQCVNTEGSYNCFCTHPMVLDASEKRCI
T2 sequence (P01137 30-390): as the sequence (P01137 30-390) above
T2 sequence (Q14392 20-627 partner limits assumed): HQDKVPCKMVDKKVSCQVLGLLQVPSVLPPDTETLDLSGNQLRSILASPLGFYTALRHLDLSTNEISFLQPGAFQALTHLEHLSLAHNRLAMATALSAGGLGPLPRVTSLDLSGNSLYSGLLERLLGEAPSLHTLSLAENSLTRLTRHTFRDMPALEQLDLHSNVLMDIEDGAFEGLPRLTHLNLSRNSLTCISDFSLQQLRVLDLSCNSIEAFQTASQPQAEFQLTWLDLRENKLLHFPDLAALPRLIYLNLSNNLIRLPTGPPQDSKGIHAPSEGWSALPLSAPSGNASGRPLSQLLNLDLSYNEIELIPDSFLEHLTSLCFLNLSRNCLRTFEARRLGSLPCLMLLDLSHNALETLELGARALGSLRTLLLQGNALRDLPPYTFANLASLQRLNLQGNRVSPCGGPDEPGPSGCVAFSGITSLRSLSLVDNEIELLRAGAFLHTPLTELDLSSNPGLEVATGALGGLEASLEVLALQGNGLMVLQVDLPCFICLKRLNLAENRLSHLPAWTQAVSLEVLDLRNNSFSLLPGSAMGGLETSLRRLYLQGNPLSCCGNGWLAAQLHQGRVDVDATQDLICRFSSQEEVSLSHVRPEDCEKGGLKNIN
T4 sequence (P01137 30-390): as the sequence (P01137 30-390) above
T4 sequence (Q86YC3 19-650 partner limits assumed): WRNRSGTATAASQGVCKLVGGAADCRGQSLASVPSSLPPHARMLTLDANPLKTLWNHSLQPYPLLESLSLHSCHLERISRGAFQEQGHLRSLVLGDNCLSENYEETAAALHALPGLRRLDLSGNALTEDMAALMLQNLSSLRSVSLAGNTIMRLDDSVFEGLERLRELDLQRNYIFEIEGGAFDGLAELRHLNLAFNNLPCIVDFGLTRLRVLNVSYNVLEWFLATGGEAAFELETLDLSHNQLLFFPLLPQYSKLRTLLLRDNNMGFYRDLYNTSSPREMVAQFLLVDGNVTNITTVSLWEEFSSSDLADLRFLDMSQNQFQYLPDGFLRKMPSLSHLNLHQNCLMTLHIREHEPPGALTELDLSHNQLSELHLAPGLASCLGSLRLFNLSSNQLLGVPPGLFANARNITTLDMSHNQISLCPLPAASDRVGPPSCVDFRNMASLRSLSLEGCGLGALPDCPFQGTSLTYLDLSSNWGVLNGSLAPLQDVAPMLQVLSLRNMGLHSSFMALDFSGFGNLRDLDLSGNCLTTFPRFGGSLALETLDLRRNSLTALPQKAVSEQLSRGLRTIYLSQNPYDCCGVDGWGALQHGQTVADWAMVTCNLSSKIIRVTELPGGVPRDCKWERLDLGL

B1: Ab10: monoclonal antibody; VH SEQ ID NO: 239, VL SEQ ID NO: 240 (antibody, V domains shown)
VH: EVQLLESGGGLVQPGGSLRLSCAASGFTFRNYAMSWVRQAPGKGLEWVSSISGSGGATYYADSVKGRFTISRDNSKNTLYLQMNSLRAEDTAVYYCARVSSGHWDFDYWGQGTLVTVSS
VL: DIQMTQSPSSLSASVGDRVTITCQASQDISNSLNWYQQKPGKAPKLLIYDASNLETGVPSRFSGSRSGTDFTFTISSLQPEDIATYYCQQAPNLPFTFGGGTKVEIK
Kd ([1]; average KD of (E) and (F), cell-associated complexes, read-out: (G) Cell AVRG): 5.63 nM | (H) G/D (fold bias) ([1]; ratio of average KD cell-associated / matrix-associated): 19.38 fold | (B) hLTBP1, Matrix-associated proTGFb1 (KD) [2]: 2.62E−10 | (E) hGARP, Cell-associated proTGFb1 (KD) [3]: 1.02E−08 | (C) hLTBP3, Matrix-associated proTGFb1 (KD) [4]: 3.19E−10 | (F) hLRRC33, Cell-associated proTGFb1 (KD) [5]: 1.06E−09 | Kd [6]: 0.29 nM

Where two headings read alike, the source gives them in different places.
